Assay results: PubChem BioAssay AID445 (National Center for Advancing Translational Sciences (NCATS), 2006)
Hit rate of the full screen: of about 110,000 compounds, about 40 (0.04%) were called active. The inconclusive results got no clear call from the source; some entries with a clear call stand among them for comparison. The call rests on the fitted dose curve; in most records, active means well fitted curve in the direction sought with a large enough effect in the signal ratio (not every such curve was filed as active); inconclusive means small, poorly fitted or top-dose-only effect, or a change in a side signal; inactive means flat fitted curve, though single readings scatter; the % refers to the signal ratio. A potency beside an inconclusive call is a rough fit, not a confirmed value.
Potency means the concentration at half of the fitted maximal effect.

Assay: IkB Signaling;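 on IkBa stabilization activation: 0% = basal untreated cells and 100% = reference inhibitor full response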
Settings: ABC-DLBCL IkBa-CBG/CBR dual luciferase ratio (green luciferase fused to IkBa over red control in OCI-Ly3 lymphoma cells), 4 h; IkBa stabilization activation: at 57.1 µM (top of the series), scaled: untreated 0%, proteasome inhibitor 100% unless noted
Summary of the method: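 In this assay, an IκBα–CBG68 fusion accumulates when IKK-driven degradation is blocked; native CBR normalizes for cell number. OCI-Ly3 cells were treated 4 h with compound and doxycycline, then green and red light read after Chroma-Glo addition.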
In the case of `COc1ccc(N2CCN(CCCNC(=O)c3nnc(Cc4ccccc4Cl)o3)CC2)cc1`, the IkBa stabilization activation is reported as inconclusive: 0.138% [signal inhibitor].
With `Cc1cc(C)n2c(Nc3ccc4c(c3)OCCO4)c(-c3ccccc3)nc2n1` the IkBa stabilization activation was inconclusive: 3.42% [signal inhibitor].
For `COc1ccc(/C=C/C(=O)Nc2cc(-c3nc4ccccc4o3)ccc2OC)cc1`, the IkBa stabilization activation was inconclusive: 7.96% [signal inhibitor].
For `CCOC(=O)c1nn(-c2ccccc2)c(C#N)c1NC(=O)c1nn(CC)cc1Br`, the IkBa stabilization activation was “inactive”.
With `Cc1ccc(S(=O)(=O)c2[nH]c(-c3ccccc3)nc2SC(C)C(=O)O)cc1` (configuration not stated) the IkBa stabilization activation was inconclusive: 1.94% [signal inhibitor].
In the case of `COc1cc2ncnc(Nc3cccc(Br)c3)c2cc1OC`, the IkBa stabilization activation is reported as inconclusive: -0.081% [signal inhibitor].
In the case of `COc1cccc(C2=CC(c3cccc(OC)c3OC(F)F)n3nnnc3N2)c1` (configuration not stated), the IkBa stabilization activation is reported as inconclusive: 9.8% [signal inhibitor].
With `O=C(C1CC1)N1CCc2cc(S(=O)(=O)N(CCO)Cc3ccccc3)ccc21` the IkBa stabilization activation was inconclusive: 3.29% [signal inhibitor].
In the case of `CC(=O)Nc1ccc(NC(=O)c2csnn2)cc1`, the IkBa stabilization activation is reported as “inactive”.
In the case of `COc1ccc(CNC(=O)COC(=O)c2n[nH]c3ccccc23)cc1`, the IkBa stabilization activation is reported as inconclusive: 3.23% [signal inhibitor].
In the case of `N#Cc1nc(-c2ccc(OCc3ccccc3Cl)cc2)oc1NCCCn1ccnc1`, the IkBa stabilization activation is reported as inconclusive: -3.4% [signal inhibitor].
In the case of `COc1cc2ccccc2cc1C(=O)N1CCN(c2nc3c(F)cccc3s2)CC1`, the IkBa stabilization activation is reported as inconclusive: 10.5% [signal inhibitor].
In the case of `O=C(NCc1ccc(Cl)cc1)C(=O)NCC(c1ccc2c(c1)OCO2)N1CCOCC1` (configuration not stated), the IkBa stabilization activation is reported as “inactive”.
With `CCC(C)(C)NC(=O)C(c1cccn1C)N(Cc1ccccc1)C(=O)Cn1nnc2ccccc21` (configuration not stated) the IkBa stabilization activation was “inactive”.
For `O=C1c2ccccc2C(=O)C1c1ccncc1`, the IkBa stabilization activation was “inactive”.
In the case of `CCCCc1nn2c(=O)cc(COC(=O)c3cccc(NC(=O)c4cccs4)c3)nc2s1`, the IkBa stabilization activation is reported as “inactive”.
For `Cn1c(COc2ccccc2C(C)(C)C)nc2ccccc21`, the IkBa stabilization activation was inconclusive: -2.49% [signal inhibitor].
With `O=C(CSc1nnc(Cc2cccs2)n1Cc1ccco1)Nc1cc(Cl)cc(Cl)c1` the IkBa stabilization activation was inconclusive: 1.21% [signal inhibitor].
In the case of `Cc1nn(CC(=O)Nc2ccccn2)c(=O)c2ccccc12`, the IkBa stabilization activation is reported as “inactive”.
In the case of `CC(C)(CC(=O)NCc1ccc(Cl)cc1Cl)CC1=NS(=O)(=O)c2ccccc2N1`, the IkBa stabilization activation is reported as inconclusive: 2.19% [signal inhibitor].
For `Cc1cc(NC(=O)CSc2ccc3nnc(-c4cccs4)n3n2)no1`, the IkBa stabilization activation was “inactive”.
For `CN(C(=O)c1ccccc1)c1nc2ccccc2s1`, the Potency was inconclusive: 25.1 µM [signal inhibitor, partial curve].
In the case of `COc1ccc(-c2cc(C(=O)NC(C)C)no2)cc1`, the Potency is reported as inconclusive: 15.8 µM [signal inhibitor, partial curve].
For `Cc1ccc(C(=O)N2CCN(c3cccc(Cl)c3)CC2)cc1-n1c(C)nc2cccnc21`, the IkBa stabilization activation was inconclusive: 0.376% [signal inhibitor].
For `O=C(c1ccc2c(c1)N(Cc1cccc(Cl)c1)C(=O)c1ccccc1S2(=O)=O)N1CCc2ccccc21`, the IkBa stabilization activation was “inactive”.
In the case of `CCc1ccccc1N(CC)C(=O)C(=O)Nc1ccc2nc3n(c(=O)c2c1)CCCCC3`, the IkBa stabilization activation is reported as inconclusive: 3.58% [signal inhibitor].
In the case of `COc1cc(NC(=O)COc2cccc(OC)c2)cc(OC)c1`, the IkBa stabilization activation is reported as inconclusive: 3.01% [signal inhibitor].
In the case of `COc1ccc(-n2c(SC)nc3sc4c(c3c2=O)CCN(C(C)=O)C4)cc1`, the IkBa stabilization activation is reported as “inactive”.
For `FC(F)(F)c1cccc(N2CCN(c3nc4ccccc4n4cnnc34)CC2)c1`, the Potency was inconclusive: 25.1 µM [signal inhibitor, single point].
For `CC(=O)c1sc(Nc2nc3ccc(F)cc3s2)nc1C`, the Potency was inconclusive: 6.31 µM [rising, single point].
With `CCS(=O)(=O)N1CCc2cc(C(=O)NC(C)c3ccccc3)ccc21` (configuration not stated) the IkBa stabilization activation was inconclusive: 9.16% [signal inhibitor].
In the case of `CCOC(=O)N1CCC(N(C(=O)Nc2ccc(Cl)c(Cl)c2)C(C)CC)CC1` (configuration not stated), the IkBa stabilization activation is reported as inconclusive: 5.84% [signal inhibitor].
For `O=c1c2sc3ccccc3c2n(Cc2cccc(C(F)(F)F)c2)c(=O)n1-c1ccccc1`, the IkBa stabilization activation was “inactive”.
With `O=C1CC(c2ccccc2)Cc2[nH]c(=O)c(-c3nc(-c4ccc(Cl)c(Cl)c4)cs3)cc21` (configuration not stated) the Potency was inconclusive: 12.6 µM [signal inhibitor].
In the case of `COc1ccc(Cl)cc1NC(=O)C(=O)NCc1ccc(Cl)cc1`, the Potency is reported as inconclusive: 7.94 µM [signal inhibitor].
In the case of `CCS(=O)(=O)NCCc1sc2nc(-c3ccc(OC)cc3)nn2c1C`, the IkBa stabilization activation is reported as “inactive”.
For `COCCNS(=O)(=O)c1cc(-c2nn3c(C)nnc3c3ccccc23)ccc1C`, the Potency was inconclusive: 12.6 µM [signal activator].
For `Cc1ccc(NC(=O)N2CCN(C(=O)c3nsc4ccccc34)CC2)cc1C`, the IkBa stabilization activation was “inactive”.
With `COc1cccc(NC(=O)CN2C=NS(=O)(=O)c3ccccc32)c1` the IkBa stabilization activation was inconclusive: 5.05% [signal inhibitor].
For `Cc1cccc(CCn2c(=O)c3ccccc3n(Cc3ccccc3C)c2=O)c1`, the IkBa stabilization activation was inconclusive: 11.3% [signal inhibitor].
In the case of `CCN(CC)S(=O)(=O)c1cccc(-c2nnc(SCC(=O)c3ccc(Cl)s3)n2C)c1`, the IkBa stabilization activation is reported as inconclusive: 17% [signal inhibitor].
In the case of `CCCC(=O)Nc1cccc(-c2nc3ccccc3o2)c1`, the IkBa stabilization activation is reported as “inactive”.
In the case of `O=C(CCCCn1c(=O)[nH]c2ccccc2c1=O)NCCc1c[nH]c2ccccc12`, the IkBa stabilization activation is reported as inconclusive: 3% [signal inhibitor].
For `Cc1ccc(OC(=O)CSc2nnc(-c3ccc4c(c3)OCO4)o2)c(C)c1`, the IkBa stabilization activation was inconclusive: -0.0295% [signal inhibitor].
In the case of `Cc1cccn2c(=O)cc(COc3ccc(NC(=O)COc4ccc(F)cc4)cc3)nc12`, the IkBa stabilization activation is reported as “inactive”.
With `COc1ccc(OC)c(NC(=O)C2COc3ccccc3O2)c1` (configuration not stated) the IkBa stabilization activation was “inactive”.
For `COC(=O)c1cccc(NC(=O)CSc2nnc(COc3ccc(C#N)cc3)n2-c2ccccc2)c1`, the IkBa stabilization activation was inconclusive: 7.68% [signal inhibitor].
